Experimental data from PubChem BioAssay AID1347041 (National Center for Advancing Translational Sciences (NCATS), 2019).
About 740 (0.15%) of roughly 480,000 compounds were called active. The shares of active, inactive and inconclusive entries below differ from those in the screen. Rule as the data show it: active = activity change below about -30%; inconclusive = mostly about -25% to -30%; inactive = weaker than that.

Target: L-lactate dehydrogenase A chain (Homo sapiens) (UniProt P00338)
Assay: qHTS assay for inhibitors of human lactate dehydrogenase;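 also: values are at about 110 or 230 µM; plate controls were DMSO wells for no effect and wells without enzyme for full effect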
Conditions: purified LDHA, NADH/diaphorase-resazurin fluorescence; stronger effect = lower value
Summary of the method: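 Remaining NADH was detected by diaphorase (0.133 mg/mL) converting 37 µM resazurin to fluorescent resorufin, read at 0 and 20 minutes. The preceding 5-minute room-temperature reaction used 2 nM LDHA, 0.2 mM sodium pyruvate and 0.06 mM NADH at pH 7.4.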

Structure (SMILES)	activity change
COc1ccc(S(=O)Cc2ccc(C(=O)NCc3cccc(OC)c3)o2)cc1 (centres undefined)	inactive: 0.614%
COc1ccc(CCN(C)C(=O)C2CCN(Cc3ccccc3)CC2)cc1OC	inconclusive: -26.1%
O=S1(=O)CCO[C@H]2Cc3ccccc3[C@H]2N1Cc1ccccc1Br	inactive: -1.43%
NS(=O)(=O)c1ccc(NC(=O)CSc2nnc(-c3ccc(O)cc3)o2)cc1	inconclusive: -25.8%
CC(C)(c1ccccc1)c1ccc(OCCCN2CCNCC2)cc1	inconclusive: -25.9%
Cc1cc(C)cc(OCCCCn2cncn2)c1	inconclusive: -26.4%
CCC(C)c1ccc(S(=O)(=O)N2CCN(CC(O)COCC3CCCO3)CC2)cc1 (centres undefined)	inconclusive: -28.6%
N#Cc1ncn(Cc2nnc(-c3ccccc3)o2)n1	inconclusive: -28.8%
CC(C)n1nc(C(=O)Nc2ccc(F)c(F)c2)c2ccccc2c1=O	inconclusive: -28.2%
CCOC(=O)c1cc(C(O)(C(=O)OC)C(F)(F)F)c(N)o1 (centres undefined)	inconclusive: -27.6%
COc1ccc(/C=N\NC(=O)c2ccccc2)cc1COc1ccccc1	inactive: -4.71%
OC(COC(c1ccc(F)cc1)c1ccc(F)cc1)CN1CCCC1 (centres undefined)	inconclusive: -26.2%
O=C(NCc1ccccc1)c1ccc(CSc2nc3cccnc3n2Cc2ccccc2F)cc1	active: -33.2%
NNS(=O)(=O)c1ccc2c(c1)Cc1cc(S(=O)(=O)NN)ccc1-2	active: -35.3%
CCOC(=O)c1sc2ccccc2c1S(=O)(=O)N1CCN(c2ccccc2)CC1	inactive: -2.09%
CCc1ccc2oc(=O)cc(CN3CCN(CC(=O)Nc4ccc5c(c4)OCCO5)CC3)c2c1	inconclusive: -25.6%
CC1(C)Cc2nc3oc4c(NCCCN5CCOCC5)ncnc4c3cc2CO1	inactive: -8.05%
CCCS(=O)(=O)N1CCN(Cc2c[nH]c3ccccc23)CC1	inconclusive: -27.6%
O=[N+]([O-])c1ccc(O)c(/C=N/Nc2nn[nH]n2)c1	active: -46%
COc1cc(/C=C2\NC(=O)NC2=O)cc(Br)c1OCC(=O)O	inconclusive: -26%
CCCn1c(=O)c2ccc(C(=O)NCC(C)C)cc2n2c(SCc3ccccc3F)nnc12	inconclusive: -27.5%
COc1ccc(CN2C(=NC(=O)c3ccccc3)SC3CS(=O)(=O)CC32)cc1OC (centres undefined)	inactive: -7.2%
Cc1cc(C)c(NC(=O)Cn2nnc(S(=O)(=O)c3ccc(C)c(C)c3)c2N)c(C)c1	inconclusive: -27.7%
Cc1ccc(OCCOCCN2CCN(C)CC2)c(C(C)(C)C)c1	active: -32.2%
